Assay results: the supplement of paper PMC8285479
Structures can show the parent of a compound that is named as a salt. ± gives the standard deviation of the averaged measurements. Whole data set: some 1,900 compounds, median “normalised cell viability (NPI; 0 = phenylarsine oxide control, 1 = DMSO control)” near 1, cut for the lowest 2% near 0.039. This is one part of the list.

System: NCI-H1944
Test: normalised cell viability (NPI; 0 = phenylarsine oxide control, 1 = DMSO control) (fraction of DMSO control); NCI-H1944 is a non-small cell lung cancer line; higher = more viable cells (less compound toxicity)
Settings: 6 days
[1] = glucocorticoid arm: hydrocortisone 2.75 uM co-treatment, compound 1 µM
[2] = glucocorticoid arm: hydrocortisone 2.75 uM co-treatment, compound 5 µM
[3] = glucocorticoid arm: hydrocortisone 2.75 uM pre-treated 2 days and continued, compound 1 µM
[4] = glucocorticoid arm: hydrocortisone 2.75 uM pre-treated 2 days and continued, compound 5 µM
[5] = glucocorticoid arm: vehicle, compound 1 µM
[6] = glucocorticoid arm: vehicle, compound 5 µM
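Further: CTB read-out in 384-well plates, mean of triplicate wells, normalised per plate against 1 µM phenylarsine oxide and 0.1% DMSO, compounds added 24 h after seeding.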

Structure (SMILES) | normalised cell viability [1] | normalised cell viability [2] | normalised cell viability [3] | normalised cell viability [4] | normalised cell viability [5] | normalised cell viability [6]
CCN(CCO)CCCOc1ccc2c(Nc3cc(CC(=O)Nc4cccc(F)c4)[nH]n3)ncnc2c1 [Barasertib (AZD1152-HQPA)] | 0.934 ± 0.026 | 0.896 ± 0.032 | 0.947 ± 0.049 | 0.963 ± 0.035 | 0.757 ± 0.041 | 0.66 ± 0.08
CCCCCCCCCCCCCCCC(=O)NCCO [Palmitoylethanolamide] | 0.98 ± 0.021 | 0.966 ± 0.013 | 0.9873 ± 0.0095 | 1.02 ± 0.071 | 0.9747 ± 0.0055 | 0.984 ± 0.0046
CO[C@@H](C(=O)N1Cc2[nH]nc(NC(=O)c3ccc(N4CCN(C)CC4)cc3)c2C1)c1ccccc1 | 0.744 ± 0.037 | 0.525 ± 0.048 | 0.862 ± 0.061 | 0.703 ± 0.077 | 0.431 ± 0.036 | 0.206 ± 0.022
NC12CC3CC(CC(C3)C1)C2 [Amantadine hydrochloride] | 0.982 ± 0.018 | 0.961 ± 0.027 | 0.9937 ± 0.0042 | 0.947 ± 0.012 | 0.986 ± 0.012 | 0.9747 ± 0.0086
NC12CC3CC(CC(C3)C1)C2 [Amantadine HCl] | 1.007 ± 0.0058 | 0.983 ± 0.013 | 1 ± 0.017 | 1.01 ± 0.021 | 1 ± 0.011 | 1.002 ± 0.0072
N#C/C(=C\c1ccc(O)c(O)c1)C(=O)c1ccc(O)c(O)c1 [Tyrphostin AG 538] | 1.01 ± 0.01 | 1.02 ± 0.017 | 1.03 ± 0.035 | 1.013 ± 0.0058 | 1.007 ± 0.0058 | 1.003 ± 0.0061
CC1(C2CCCC2)Cc2cc(OCC(=O)O)c(Cl)c(Cl)c2C1=O (configuration not stated) | 0.983 ± 0.014 | 0.982 ± 0.037 | 0.9883 ± 0.0072 | 0.986 ± 0.084 | 0.998 ± 0.011 | 0.9853 ± 0.0067
NCC=CC(=O)O (stereo in doubt) [cis-4-Aminocrotonic acid] | 0.992 ± 0.0092 | 0.993 ± 0.015 | 0.9857 ± 0.0042 | 0.9765 ± 0.0092 | 0.973 ± 0.0079 | 0.9753 ± 0.0086
CC(=O)[C@H]1CC[C@H]2[C@@H]3CC=C4C[C@@H](OS(=O)(=O)O)CC[C@]4(C)[C@H]3CC[C@]12C [Pregnenolone sulfate sodium] | 0.994 ± 0.0036 | 0.982 ± 0.025 | 0.998 ± 0.013 | 0.964 ± 0.026 | 0.993 ± 0.0044 | 0.992 ± 0.0095
CCCN(CCc1cccs1)[C@H]1CCc2c(O)cccc2C1 [Rotigotine] | 1.01 ± 0.016 | 0.992 ± 0.031 | 1.01 ± 0.01 | 1.013 ± 0.0058 | 0.9953 ± 0.0057 | 0.996 ± 0.0027
COc1cc2ncc(-c3ccccc3)nc2cc1OC [Tyrphostin AG 1296] | 1.04 ± 0.015 | 1.097 ± 0.0058 | 1.047 ± 0.0058 | 1.06 ± 0.02 | 1.007 ± 0.0058 | 1.01 ± 0.021
COc1cc(Nc2ncc(F)c(Nc3ccc4c(n3)NC(=O)C(C)(C)O4)n2)cc(OC)c1OC [R406(free base)] | 0.748 ± 0.024 | 0.826 ± 0.034 | 0.854 ± 0.017 | 0.88 ± 0.08 | 0.874 ± 0.025 | 0.96 ± 0.016
COc1cc(Nc2ncc(F)c(Nc3ccc4c(n3)NC(=O)C(C)(C)O4)n2)cc(OC)c1OC | 0.771 ± 0.012 | 0.88 ± 0.015 | 0.853 ± 0.0087 | 0.911 ± 0.04 | 0.902 ± 0.014 | 0.967 ± 0.011
COc1ccc(C(=O)Nc2sc3c(c2C(N)=O)CCCC3)cc1OC | 0.987 ± 0.01 | 0.943 ± 0.036 | 0.954 ± 0.014 | 0.972 ± 0.025 | 0.999 ± 0.01 | 0.982 ± 0.012
COc1ccc(-c2ccc(=N)n(CCCC(=O)O)n2)cc1 | 0.988 ± 0.007 | 1 ± 0.016 | 1.02 ± 0.026 | 1 ± 0.015 | 1.01 | 0.996 ± 0.0069
CSc1ccc(C(=O)c2[nH]c(=O)[nH]c2C)cc1 [Enoximone] | 0.997 ± 0.012 | 0.964 ± 0.054 | 0.999 ± 0.01 | 0.973 ± 0.016 | 0.9957 ± 0.0038 | 0.9913 ± 0.0035

Structure (SMILES) | normalised cell viability [1] | normalised cell viability [2] | normalised cell viability [3] | normalised cell viability [4] | normalised cell viability [5] | normalised cell viability [6]
S=C(Nc1ccccc1)Nc1nccs1 [1-Phenyl-3-(2-thiazolyl)-2-thiourea] | 1.017 ± 0.0058 | 1.04 ± 0.017 | 1.02 ± 0.015 | 0.903 ± 0.24 | 0.999 ± 0.0017 | 1.02 ± 0.011
CS(=O)(=O)c1cccc(CNc2nc(Nc3ccc4c(c3)CCC(=O)N4)ncc2C(F)(F)F)c1 | 0.889 ± 0.017 | 0.736 ± 0.026 | 0.851 ± 0.014 | 0.839 ± 0.077 | 0.99 ± 0.011 | 0.954 ± 0.018
CC1(C)CCC(CN2CCN(c3ccc(C(=O)NS(=O)(=O)c4ccc(NCC5CCOCC5)c([N+](=O)[O-])c4)c(Oc4cnc5[nH]ccc5c4)c3)CC2)=C(c2ccc(Cl)cc2)C1 | 0.9903 ± 0.0095 | 1.02 ± 0.021 | 0.996 ± 0.012 | 1.03 ± 0.01 | 0.9933 ± 0.0091 | 0.9943 ± 0.0098
CC(C)(C)n1nc(-c2ccc(Cl)cc2)c2c(N)ncnc21 | 0.866 ± 0.017 | 0.799 ± 0.024 | 0.822 ± 0.023 | 0.805 ± 0.032 | 0.957 ± 0.012 | 0.965 ± 0.029
C/C=C1\NC(=O)[C@H]2CSSCC/C=C/[C@H](CC(=O)N[C@H](C(C)C)C(=O)N2)OC(=O)[C@H](C(C)C)NC1=O [Romidepsin (FK228, Depsipeptide)] | 0.00704 ± 0.0021 | 0.000455 ± 0.00053 | 0.00593 ± 0.0021 | 0.000393 ± 0.00068 | 0.00559 ± 0.0012 | 2.1e-05 ± 0.00023
C/C=C1\NC(=O)[C@H]2CSSCC/C=C/[C@H](CC(=O)N[C@H](C(C)C)C(=O)N2)OC(=O)[C@H](C(C)C)NC1=O [Romidepsin] | 1.005 ± 0.0092 | 1.02 ± 0.011 | 1.007 ± 0.0058 | 1.02 ± 0.015 | 0.9903 ± 0.0045 | 0.979 ± 0.019
C/C=C1\NC(=O)[C@H]2CSSCC/C=C/[C@H](CC(=O)N[C@H](C(C)C)C(=O)N2)OC(=O)[C@H](C(C)C)NC1=O [Depsipeptide] | 6.37e-05 ± 0.001 | 1.05 ± 0.02 | 0.00143 ± 0.00036 | 1.027 ± 0.0058 | 0.00028 ± 0.00044 | 1.01
O=C(O)CC[C@H]1CC[C@@](c2cc(F)ccc2F)(S(=O)(=O)c2ccc(Cl)cc2)CC1 | 0.9867 ± 0.0045 | 0.9977 ± 0.0021 | 0.998 ± 0.012 | 0.995 ± 0.023 | 0.9953 ± 0.0042 | 0.993 ± 0.001
CCCN(CCC)C(=O)C(CCC(=O)O)NC(=O)c1ccccc1 (configuration not stated) [Proglumide] | 0.9937 ± 0.0085 | 0.997 ± 0.029 | 1.007 ± 0.0058 | 1.04 ± 0.072 | 1.007 ± 0.0058 | 1.01 ± 0.016
Nc1nc(N)c2nc(-c3cccc(O)c3)cnc2n1 | 0.999 ± 0.02 | 0.985 ± 0.035 | 1.03 ± 0.046 | 0.965 ± 0.021 | 0.9967 ± 0.0049 | 0.9993 ± 0.0095
COc1ccccc1N1CCN(CC(O)COc2cccc3ccccc23)CC1 (configuration not stated) [Naftopidil DiHCl] | 0.961 ± 0.019 | 0.899 ± 0.014 | 0.967 ± 0.025 | 0.897 ± 0.024 | 0.996 ± 0.016 | 0.994 ± 0.0066
COc1ccccc1N1CCN(CC(O)COc2cccc3ccccc23)CC1 (configuration not stated) [Naftopidil] | 1.01 ± 0.015 | 0.996 ± 0.017 | 0.998 ± 0.02 | 1 ± 0.011 | 1.007 ± 0.0058 | 1.01 ± 0.01
COc1ccccc1N1CCN(CC(O)COc2cccc3ccccc23)CC1 (configuration not stated) [Naftopidil dihydrochloride] | 0.995 ± 0.013 | 1 ± 0.024 | 1.013 ± 0.0058 | 1.04 ± 0.059 | 1.003 ± 0.0061 | 1.02 ± 0.015
CN1CCC(=C2c3ccccc3CC(=O)c3sccc32)CC1 [Ketotifen fumarate] | 1.01 ± 0.012 | 1.02 ± 0.027 | 1.01 ± 0.016 | 0.856 ± 0.28 | 0.9907 ± 0.0035 | 0.9967 ± 0.0049
CN1CCC(=C2c3ccccc3CC(=O)c3sccc32)CC1 [Ketotifen Fumarate] | 1.03 ± 0.021 | 1.02 ± 0.015 | 1.02 ± 0.01 | 1.013 ± 0.0058 | 1.003 ± 0.0061 | 1.002 ± 0.0072
CCOc1ccc(Cc2cc([C@@H]3O[C@H](SC)[C@@H](O)[C@H](O)[C@H]3O)ccc2Cl)cc1 [Sotagliflozin (LX4211)] | 0.994 ± 0.0079 | 0.926 ± 0.01 | 0.98 ± 0.029 | 0.946 ± 0.013 | 0.9947 ± 0.004 | 0.9953 ± 0.0081
